Experimental data reported in ChEMBL document CHEMBL1201862, “PubChem BioAssay data set” (2004).
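Five concentrations, 48 hours, 96-well plates. GI50 = concentration required for 50% inhibition of growth.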 Calls of active or inactive are those of the source. No stated cut-off is given here; in the data, active = GI50 up to about 1.1 µM and inactive = higher.

These molecules were tested on NCI-H322M (assay: NCI anticancer screen, dose series, 48 h).
With `O=c1cc[nH]c2ccc3nn[nH]c3c12` the GI50 was inactive: > 100 µM. For `CN(C)C/C=C(/c1ccc(Br)cc1)c1cccnc1`, the GI50 was inactive: > 100 µM. With `COc1ccc(OC)c2c1C(=O)C(Cl)=C(Cl)C2=O` the GI50 was inactive: 24.9 µM. `COc1ccc(C(c2cc3c(cc2O)OCO3)N2CCOCC2)cc1OC` (configuration not stated) was tested, and the GI50 was inactive: 17.5 µM. For `O=C(O)CCCCn1ccc(=O)[nH]c1=O`, the GI50 was inactive: > 100 µM. `Cc1cccc(C2NC(=O)c3ccccc3N2)c1` (configuration not stated) was tested, and the GI50 was inactive: > 23.6 µM. In the case of `O=C(CCc1ccc(O)cc1)NCCc1cccc(O)c1`, the GI50 is reported as inactive: > 50 µM. For `CC(C)OC(=O)c1cccnc1/C=N/O`, the GI50 was inactive: > 100 µM. In the case of `COC(=O)c1nc(N)nc(C(=O)OC)c1C(=O)c1ccccc1`, the GI50 is reported as inactive: > 100 µM. In the case of `COC(=O)C1(NC(=O)C(N)CC(=O)O)C(C)C1C` (configuration not stated), the GI50 is reported as inactive: > 100 µM. For `CCOc1ccccc1/C=C(/C#N)C(N)=O`, the GI50 was inactive: > 100 µM. For `COC(=O)C(=O)c1c2ccccc2n2ccc3c4ccccc4[nH]c3c12`, the GI50 was inactive: > 10 µM. With `CN(O)C(=O)CCCC(=O)NCC(C)(C)CNC(=O)CCCC(=O)N(C)O` the GI50 was inactive: > 100 µM. With `CCOC(=O)c1c(-c2ccccc2)c(-c2ccccc2)cn1C` the GI50 was inactive: > 10 µM. For `NN1C(=O)C(CCO)S/C1=N/N=C1/SC(CCO)C(=O)N1N` (configuration not stated), the GI50 was inactive: > 100 µM. With `Fc1nc(F)nc(-c2c3ccccc3c3n2CCS3)n1` the GI50 was inactive: > 100 µM. In the case of `COc1ccccc1/C=C1\NC(=S)N(/C=C2\C(=O)Oc3ccccc3C2=O)C1=O`, the GI50 is reported as inactive: 63.2 µM. With `CN(C)P(=O)(Oc1ccc(CC(NC(=O)OCc2ccccc2)C(=O)OCc2ccccc2)cc1)N(C)C` (configuration not stated) the GI50 was inactive: 18 µM. With `CCOC(=O)[C@H]1Nc2ccc(Cl)cc2[C@H]2OCC[C@@H]12` the GI50 was inactive: > 100 µM. `N#C/N=C1\NCCC(=O)N1CCc1c[nH]c2ccccc12` was tested, and the GI50 was inactive: > 100 µM. `COCCN1C2=CCCCC2=Nc2c(N)nc(N)nc21` was tested, and the GI50 was inactive: > 100 µM. `Cc1cccc(NC(=O)c2cc3cc(/N=N/c4ccccc4Cl)ccc3oc2=O)c1` was tested, and the GI50 was inactive: 40.6 µM. `CCCCCCCCCCCCCCCCCCNc1nc(=O)n(C2CC(OP(=O)(O)OCC3OC(n4cc(F)c(=O)[nH]c4=O)CC3O)C(CO)O2)cc1F` (configuration not stated) was tested, and the GI50 was inactive: 53.8 µM. With `NC(=S)NS(=O)(=O)c1ccc(Cl)cc1Cl` the GI50 was inactive: > 100 µM. `COc1cc(Cc2ccc3c(c2C#N)N(C)c2ccccc2S3)cc(OC)c1OC` was tested, and the GI50 was inactive: > 100 µM. `O=C1CC(Br)c2c(Br)sc(Br)c21` (configuration not stated) was tested, and the GI50 was inactive: > 100 µM. With `NS(=O)(=O)c1ccc(NC(=S)NC=C2C(=O)c3ccccc3C2=O)cc1` the GI50 was inactive: > 100 µM. For `O=C1CC(c2ccccc2)NCCCCN2CC(CN1)C(C(O)c1ccccc1)C2=O` (configuration not stated), the GI50 was inactive: > 100 µM. `C=CC12CN(C)C3C4COC(CC41)C1(C(=O)Nc4ccccc41)C32` (configuration not stated) was tested, and the GI50 was inactive: 171 µM. For `CS(=O)(=O)OCCn1c(=O)n(CCOS(C)(=O)=O)c(=O)n(CCOS(C)(=O)=O)c1=O`, the GI50 was inactive: > 100 µM. For `C/C(CC(=O)NCCc1ccccc1)=N\NS(=O)(=O)c1ccc(C)cc1`, the GI50 was inactive: > 100 µM. `CNS(=O)(=O)NNS(=O)(=O)c1ccc(OC)cc1` was tested, and the GI50 was inactive: > 100 µM. `COC(=O)C1CC(c2ccc(Cl)cc2)=NO1` (configuration not stated) was tested, and the GI50 was inactive: > 100 µM. For `C/C(=N\Nc1ccc([N+](=O)[O-])cc1[N+](=O)[O-])c1ccc2ccccc2n1`, the GI50 was inactive: > 100 µM. In the case of `CSc1cc(Cl)c(C)cc1S(=O)(=O)NC(=O)NNc1ccc(C)cc1`, the GI50 is reported as inactive: 95.1 µM. For `CCC(C)C(NC(=O)C(CCCC[N+](=N)N)NC(=O)C(CCCC[N+](=N)N)NC(=O)c1ccc(OC)cc1)C(=O)NC(CCCC[N+](=N)N)C(=O)N1CCCC1C(=O)NC(CCCCN)C(=O)NC(CC(C)C)C(N)=O` (configuration not stated), the GI50 was inactive: > 100 µM. `C/C=C/C=C\C(=O)C1c2cccc(O)c2C(=O)c2c(O)cc(C)cc21` (configuration not stated) was tested, and the GI50 was inactive: 1.17 µM. In the case of `COc1cc(OC)c2c(O)cc(CC(C)O)cc2c1` (configuration not stated), the GI50 is reported as inactive: > 100 µM. For `Cc1cc(C(C)(C)C)cc(Cc2cc(C(C)(C)C)cc(Cc3cc(C(C)(C)C)cc(C)c3O)c2O)c1O`, the GI50 was inactive: 9.35 µM. With `CCO/C=N/C1=C(C#N)C(c2ccc(Cl)cc2)c2c(-c3ccccc3)nn(-c3ccccc3)c2O1` (configuration not stated) the GI50 was inactive: 16.2 µM. For `Cc1cccc2c1CCC21OC(=O)c2c1ccc1ccccc21` (configuration not stated), the GI50 was inactive: 91.2 µM. `CC1C(OS(=O)(=O)c2ccc3nc(S)sc3c2)CC2C3(C)CCC2(C(C)C(=O)O)C(O)C13` (configuration not stated) was tested, and the GI50 was inactive: 53.8 µM. `CCCCC1Cc2ccccc2-c2n1c1ccccc1[n+]2C` (configuration not stated) was tested, and the GI50 was inactive: 51.8 µM. `CCN(CC)CCC(=O)/C=C/c1ccc(C)cc1` was tested, and the GI50 was inactive: 15.6 µM. For `COC(=O)C(N)CCCC(N)C(=O)NC(C)C(=O)NC(CCC(=O)NCCNCCNc1c2ccccc2nc2cccc([N+](=O)[O-])c12)C(N)=O` (configuration not stated), the GI50 was inactive: 18 µM. In the case of `Cc1ccc(/N=N/C(=N\c2ccc(F)cc2)c2ccc(N(CCC#N)CCC#N)cc2)cc1`, the GI50 is reported as inactive: > 100 µM. `OCCNCO` was tested, and the GI50 was inactive: > 100 µM. In the case of `CC(O)(P(=O)(O)O)P(=O)(O)OCC(O)CN1CCOCC1` (configuration not stated), the GI50 is reported as inactive: > 100 µM. For `CN(CCO)/N=N/c1[nH]cnc1C(N)=O`, the GI50 was inactive: > 100 µM. For `COc1cccc(C2c3cc4c(cc3OC(C)(O)C2C)OCO4)c1O` (configuration not stated), the GI50 was inactive: 4.74 µM. In the case of `CON(C(=O)OC(C)(C)C)c1ccccc1`, the GI50 is reported as inactive: > 100 µM. `N#CC1(C#N)C2=C(CCCC2)NC(c2ccc(Br)cc2)C1(C#N)C#N` (configuration not stated) was tested, and the GI50 was inactive: 18.1 µM. `COc1ccc(/C=N/c2ccc(-c3nc4ccccc4[nH]3)cc2)cc1OC` was tested, and the GI50 was inactive: > 100 µM. For `CCOc1ccc(O)cc1[P+](c1ccccc1)(c1ccccc1)c1ccccc1`, the GI50 was inactive: 12.6 µM. `N#C/C(=C\c1ccc(C(O)P(=O)(O)O)cc1)C(N)=O` (configuration not stated) was tested, and the GI50 was inactive: > 100 µM. With `O=C1NC2=NOC(=O)NC2=NO1` the GI50 was inactive: > 200 µM. `COc1cc(C(O)CCBr)c(OC)cc1C` (configuration not stated) was tested, and the GI50 was inactive: 31.9 µM. With `COc1ccc2oc(-c3cccnc3)cc(=O)c2c1` the GI50 was inactive: 70.8 µM. With `CC12CCC3C(CCC4CC(OC(=O)Cc5ccc(N(CCCl)CCCl)cc5)CCC43C)C1CCC(=O)N2` (configuration not stated) the GI50 was inactive: 18.3 µM. In the case of `ClCCCN1CCN(CCCl)CC1`, the GI50 is reported as inactive: 780 µM. For `OC1=C(c2ccccc2)C2=NCCN2c2ccccc21`, the GI50 was inactive: 53.1 µM. With `COc1cc(/N=C(\N)N=C(N)N)c2ncccc2c1` the GI50 was inactive: 88.3 µM. `CCOC(=O)c1cc(-c2ccc(OC)c(OC)c2)cn1C` was tested, and the GI50 was inactive: > 10 µM. With `O=S1(=O)C(c2ccccc2)C(N2CCCCC2)C1C1CC2c3ccccc3C1c1ccccc12` (configuration not stated) the GI50 was inactive: > 100 µM. In the case of `Nc1nc(CCC(=O)Nc2cccc(C(F)(F)F)c2)cc(-c2ccc3ccccc3c2)n1`, the GI50 is reported as inactive: > 100 µM. With `Cc1ccc(Nc2nc(C)c(C(=O)CC(=O)C(=O)Nc3c(C)cccc3C(C)(C)C)s2)cc1` the GI50 was inactive: > 100 µM. In the case of `CCOC(=O)Oc1cc2ccsc2c2c1c1ccccc1n2C(=O)OCC`, the GI50 is reported as inactive: 43.3 µM. With `CS(=O)(=O)C1(Br)S(=O)(=O)OCCOS1(=O)=O` the GI50 was inactive: > 100 µM. With `CCC(=O)Nc1ccc(NCC(=O)Nc2ccc(OC)cc2)cc1` the GI50 was inactive: 21.9 µM. For `O=C1C=CC(O)C2C1CC13SSC4(CC5C(=O)C=CC(O)C5N4C1=O)C(=O)N23` (configuration not stated), the GI50 was inactive: 1.13 µM. In the case of `C/C(=N\NS(=O)(=O)c1ccc(C)cc1)C(CN(C)C)C(c1ccccc1)c1c(O)c2ccccc2oc1=O` (configuration not stated), the GI50 is reported as inactive: > 100 µM. `Cc1cn(C2CC(O)C(COC(N)=O)O2)c(=O)[nH]c1=O` (configuration not stated) was tested, and the GI50 was inactive: > 100 µM. In the case of `N#CC1(Cc2ccccc2)CCCCN1C(=O)c1ccccc1` (configuration not stated), the GI50 is reported as inactive: > 100 µM. With `CC(=O)Nc1ccccc1-c1nc2ccccc2nc1C` the GI50 was inactive: > 100 µM. With `CC1=NN(c2ccccc2)C(=O)C12[C@H](c1ccccc1)C2(C#N)C#N` (some centres not stated) the GI50 was inactive: 15.5 µM. For `COCOc1ccc(Cn2c(=O)n(C)c(=O)c3c2ncn3C)cc1[N+](=O)[O-]`, the GI50 was inactive: > 100 µM. In the case of `COc1cc2nc(-c3cccs3)nc(Nc3cccc([N+](=O)[O-])c3)c2cc1OC`, the GI50 is reported as inactive: 17 µM. `COc1cc(C=O)cc(/C=N/c2ccc(Br)cc2)c1O` was tested, and the GI50 was inactive: 19.2 µM. `Cc1noc(/N=C2\C=C(Nc3onc(C)c3C)C(=O)c3ccccc32)c1C` was tested, and the GI50 was inactive: > 100 µM. In the case of `CC1=CC(N2C(=O)C(C)=CC2O)NC1=O` (configuration not stated), the GI50 is reported as inactive: > 10 µM. `CC(=O)OC1CCn2nnc(CO)c21` (configuration not stated) was tested, and the GI50 was inactive: > 100 µM. For `O=C(/C=C/c1ccccc1F)C(c1ccccc1)c1ccccc1`, the GI50 was inactive: 5.92 µM. `O=c1oc2ccc(-n3c(=O)c4ccccc4c4ccccc4c3=O)cc2c2ccccc12` was tested, and the GI50 was inactive: > 100 µM. With `COc1ccc(-c2cc(-c3ccccc3)n(C3OC(COC(C)=O)C(OC(C)=O)C(OC(C)=O)C3OC(C)=O)c(=S)c2C#N)cc1` (configuration not stated) the GI50 was inactive: 13.5 µM. With `O=C(O)C12CC3(C(=O)O)CC(C(=O)O)(CC(C(=O)O)(C1)C3=O)C2=O` the GI50 was inactive: > 100 µM. In the case of `OC(CC1SCCCS1)c1ccccc1` (configuration not stated), the GI50 is reported as inactive: > 100 µM. In the case of `CCC1(c2ccc(N3C(=O)c4cc(OC)c(OC)cc4C3=O)cc2)CCC(=O)NC1=O` (configuration not stated), the GI50 is reported as inactive: > 10 µM. In the case of `Oc1ccc2ccccc2c1/N=N/c1ccc(/N=N/c2ccccc2)cc1`, the GI50 is reported as inactive: > 100 µM. For `O=[PH](O)c1cc2ccccc2c2ccccc12`, the GI50 was inactive: > 100 µM. In the case of `Cc1cc(Nc2ccc(S(=O)(=O)O)c3cc(S(=O)(=O)O)cc(S(=O)(=O)O)c23)c2ccccc2n1`, the GI50 is reported as inactive: > 100 µM. For `CC(C)(C)OC(=O)N1C2CCCC23O[C@@H]1c1cc2c(cc1C3=O)OCO2` (some centres not stated), the GI50 was inactive: 56.5 µM. With `CC(C)(C)C(=O)N1C(C(=O)O)Cc2ccccc2[C@@H]1Cc1ccccc1` (some centres not stated) the GI50 was inactive: > 100 µM. With `CCCCc1ccc(Nc2nc(N)c3ncn(COCCO)c3n2)cc1` the GI50 was inactive: 42 µM. For `COc1ccc(-c2cc(=O)c3c(O)cccc3o2)c(OC)c1OC`, the GI50 was inactive: > 100 µM. `CN1CCC(c2c(O)cc(O)c3c(=O)cc(-c4ccccc4Cl)oc23)C(O)C1` (configuration not stated) was tested, and the GI50 was active: 0.0933 µM. With `CCCCCCNC(=O)c1cc(C#Cc2cc(OC)ccc2OC)ccc1OC` the GI50 was inactive: > 100 µM. For `O=S(=O)(Nc1nccs1)c1ccc(Nc2nc(-c3cccs3)nc3ccc(I)cc23)cc1`, the GI50 was inactive: 14.6 µM.
